# The other results are listed elsewhere or left out. Shown are side measurements of this screen, not its main read-out; they come without a call.
# Key:
# Assay in all cases: Primary Screen for Target Class Profiling of Small Molecule Inhibitors of Methyltransferases
# [1] = target: Guanidinoacetate N-methyltransferase (Homo sapiens) (UniProt Q14353); details: purified enzyme, MTase-Glo SAH luminescence; measured here: GAMT inhibition; at 40 µM; stronger effect = lower value
# Description: (§1) PI: Matthew D. Hall Ph.D. and Quinlin M. Hanson Ph.D.
# (§2) National Center for Advancing Translational Sciences (NCATS)
# (§3) National Institute of Health (NIH), Rockville, MD
# (§4) Target class profiling (TCP) is a chemical biology approach amenable to investigating understudied biological targets. TCP is achieved by developing a generalizable assay platform and applying it to screen a curated set of compound libraries against representative members of a target class. Small molecule methyltransferases (SMMTase) are a subclass of methyltransferase that act on metabolites to modulate signaling pathways, metabolize xenobiotics, or balance the available methyl pool. We screened four curated libraries totaling 27,574 unique compounds against the SMMTases nicotinamide N-methyltransferase (NNMT), phenylethanolamine N-methyltransferase (PNMT), histamine N-methyltransferase (HNMT), glycine N-methyltransferase (GNMT), catechol O-methyltransferase (COMT), and guanidinoacetate N-methyltransferase (GAMT). The data generated by this TCP can be leveraged for informed tool molecule development. For example, in the associated publication we identified a chemotype of HNMT-selective inhibitors. Additionally, we identified a putative SMMTase-selective inhibitor with potential as a tool molecule for studying broader methyltransferase biology.
# (§5) High-through put screening assays were developed at the National Center for Advancing Translational Science (NCATS) for the enzymes NNMT, PNMT, HNMT, GNMT, COMT, and GAMT. Enzymatic activity was measured as a function of SAM cofactor conversion using the MTase Glo kit (Promega) for all enzymes. All assays were performed in 1536-well format with substrates and SAM concentrations at KM values. Enzyme concentration and assay timing were optimized for 10-20% SAM conversion. Initial screening of 27,574 compounds was done as single-point assays using the highest compound concentration (40 uM). […] These compounds were replated in 11-point dose response and assayed against NNMT, PNMT, HNMT, GNMT, COMT, GAMT, and a counter-assay. The IC50 and efficacy (maximal response) values were determined for each dose-response curve. These values are also accounted for in the area under the curve (AUC) values.
# (§6) PROTOCOL TABLE (as described by Inglese J, Shamu CE and Guy RK. 2007)
# (§7) SEQUENCE No. (e.g., 1, 2, 3, etc.); […] (e.g., Cells, Incubation, Reagent, etc.); VALUE; DESCRIPTION.
# (§8) 1; Reagent; 2 uL; SMMTase Enzyme (2x) in reaction buffer, columns 1- 48.
# (§9) 2; Reagent; 1 uL; SAM (4x) in reaction buffer, columns 1-48.
# (§10) 3; Controls; 23 nL; DMSO in column 4; sinefungin in DMSO (0 uM - 40 uM) in 7-point 1:2 dilution series (n = 2) in column 2.
# (§11) 4; Compounds; 23 nL; Columns 5-48.
# (§12) 5; Reagent; 1 uL; Substrate (4x) in reaction buffer, columns 2-48.
# (§13) 6; Time; 20-30 min; Incubation.
# (§14) 7; Reagent; 1 uL; MTase-Glo reagent (5X), columns 1-48.
# (§15) 8; Time; 30 min; Incubation.
# (§16) 9; Reagent; 5 uL; MTase-Glo Detection reagent, columns 1-48.
# (§17) 10; Time; 30 min; Incubation, luminescence evolution.
# (§18) 11; Detection; Luminescence; ViewLux uHTS Microplate Imager (PerkinElmer).
# (§19) NOTES (numbers refer to Sequence numbers above)
# (§20) 1, 2, 5. White Medium Binding Greiner 1536-well plates (Cat #789175-F, Greiner Bio-One, Monroe, NC); Reaction buffer: 50 mM Tris, pH 8.0, 3 mM MgCl2, 1 mM EDTA, 50 mM NaCl, 1 mM DTT, and 0.1 mg/mL BSA. Evaporation was prevented by covering assay plates with metal lids containing holes to allow gas diffusion.
# (§21) 1. Six SMMTase were profiled: HNMT, GNMT, PNMT, COMT, NNMT, GAMT
# (§22) 5. The corresponding substrate was used for each enzyme: HNMT - 5.3 uM Histamine; GNMT - >500 uM Glycine; PNMT - 16.2 uM Norephinephrine; COMT - 13.7 uM Norephinephrine; NNMT - 3.8 uM Nicotinamide; GAMT - 2.5 uM Guanidinoacetate.6, 8, 10. Room temperature
# (§23) 6. Final reaction conditions: 10 nM COMT, 5 uM SAM, 15 uM norepinephrine, 50 mM Tris, pH 8.0, 3 mM MgCl2, 1 mM EDTA, 50 mM NaCl, 1 mM DTT, and 0.1 mg/mL BSA; refer to tables 2 and S1 for specific timing.
# 8. […]
# [2] = target: Nicotinamide N-methyltransferase (Homo sapiens) (UniProt P40261); details: purified enzyme, MTase-Glo SAH luminescence; measured here: NNMT inhibition; at 40 µM; stronger effect = lower value
# Description: as §1, §2, §3, §4, §5, §6, §7, §8, §9, §10, §11, §12, §13, §14, §15, §16, §17, §18, §19, §20, §21, §22, §23
# 8. […]
# [3] = target: Phenylethanolamine N-methyltransferase (Homo sapiens) (UniProt P11086); details: purified enzyme, MTase-Glo SAH luminescence; measured here: PNMT inhibition; at 40 µM; stronger effect = lower value
# Description: as §1, §2, §3, §4, §5, §6, §7, §8, §9, §10, §11, §12, §13, §14, §15, §16, §17, §18, §19, §20, §21, §22, §23
# 8. […]
# [4] = target: Glycine N-methyltransferase (Homo sapiens) (UniProt Q14749); details: purified enzyme, MTase-Glo SAH luminescence; measured here: GNMT inhibition; at 40 µM; stronger effect = lower value
# Description: as §1, §2, §3, §4, §5, §6, §7, §8, §9, §10, §11, §12, §13, §14, §15, §16, §17, §18, §19, §20, §21, §22, §23
# 8. […]
# [5] = target: Histamine N-methyltransferase (Homo sapiens) (UniProt P50135); details: purified enzyme, MTase-Glo SAH luminescence; measured here: HNMT inhibition; at 40 µM; stronger effect = lower value
# Description: as §1, §2, §3, §4, §5, §6, §7, §8, §9, §10, §11, §12, §13, §14, §15, §16, §17, §18, §19, §20, §21, §22, §23
# 8. […]
# On the % scale 0 is the no-effect control and ±100 the full control effect.
Compound,"activity change, negative = inhibition [1]","activity change, negative = inhibition [2]","activity change, negative = inhibition [3]","activity change, negative = inhibition [4]","activity change, negative = inhibition [5]"
CC(NC(=O)c1ccccc1N=Cc1c(O)ccc2ccccc12)c1ccccc1 (stereo not drawn),-13.7%,-34.1%,-34.1%,,
CC(C)CCn1c(=O)c2ccccc2n2c(SCc3ccccc3)nnc12,2.86%,-16.2%,-2.93%,-8.34%,0.641%
COC(=O)c1ncn2c1C(=O)N(c1ccc3c(c1)OCCO3)C(C)(C(=O)NCc1ccccc1)C2 (stereo not drawn),0%,4.6%,7.24%,5.63%,12.4%
Cc1ccccc1N(C)C1CN([S+](=O)([O-])c2c(C)noc2C)C1,-8.14%,-13.9%,5.84%,-6.39%,-1.99%
CCCn1c(=O)c2ccc(C(=O)NC3CCCC3)cc2n2c(=O)n(Cc3ccccc3Cl)nc12,2.35%,-3.78%,-3.47%,1.84%,1.88%
CCO[C@H]1CN(C2CCN(c3ccc4c(c3)CCC4)CC2)C[C@@H]1O,2%,-0.312%,10.6%,-8.59%,-4.63%
OCC1CN(c2ccncn2)CC12CCN(Cc1cc(F)c(F)c(F)c1)CC2 (stereo not drawn),-7.48%,-16.5%,-12.8%,-6.17%,-4%
O=C1N(CC2CCCCN2)CCN1c1ccccc1 (stereo not drawn),5.55%,-7.18%,4.95%,3.05%,12%
Cc1ccc(C)c(N2CCN(C(=O)c3ccc4c(=O)nc5c(-c6ccccc6F)n[nH]n5c4c3)CC2)c1,4.37%,-14%,-4.09%,-23.5%,-8.41%
CC(C)CCn1c(=O)c2ccc(C(=O)NCC(C)C)cc2n2c(=O)n(C)nc12,1.42%,12%,9.93%,8.99%,7.06%
Cc1cc(CNC(=O)Cc2nonc2C)c2[nH]c(-c3ccccc3)c(C)c2c1,-5.01%,-4.09%,-6.09%,-13.9%,-4.92%
O=C1NCC2(CCCN(C(=O)c3cnc4c(O)cccn4c3=O)C2)O1 (stereo not drawn),-25.7%,-19.7%,-48%,-36.4%,-5.15%
CN(C)C(=O)N1C[C@@H]2CN(C3CCOCC3)C[C@]2(C(=O)O)C1,1.81%,0.01%,0.371%,1.21%,1.15%
COc1ccc(Cl)cc1NC(=O)CCC1CCCN(C(=O)CCc2scnc2C)C1 (stereo not drawn),-7.58%,-16.5%,-11%,-6.78%,-3.35%
c1ccc(OCCCCN2CCOCC2)c(CNC2CCNC2)c1 (stereo not drawn),-9.19%,-13.2%,-9.59%,-5.87%,-11.1%
CCOC(=O)c1c(C)nn(-c2cccc([N+](=O)[O-])c2)c1C,-1.83%,-16.1%,-0.311%,-3.26%,9.83%

Compound,"activity change, negative = inhibition [1]","activity change, negative = inhibition [2]","activity change, negative = inhibition [3]","activity change, negative = inhibition [4]","activity change, negative = inhibition [5]"
CCC1=C(C)CN(C(=O)NCCc2ccc(S(=O)(=O)NC(=O)NC3CCC(C)CC3)cc2)C1=O (stereo not drawn),-4.05%,-20.7%,-7.37%,4.61%,4.32%
OC/C=C/c1ccc(O[C@@H]2O[C@H](CO)[C@@H](O)[C@H](O)[C@H]2O)cc1,-5.7%,-18.6%,-15%,0%,5.45%
CC1CCCCC1NC(=O)C1(C)Cn2c(nc3ccccc32)C(=O)N1Cc1ccco1 (stereo not drawn),0.174%,-14.4%,-3.23%,-10.2%,-4.07%
Cc1[nH]cnc1C1CCN(c2nc3cccc4c3n2CCC4=O)CC1,7.1%,-20.8%,3.61%,-2.6%,-50.1%
CCC(C)NC(=O)c1ccc2c(=O)n(C)c3nn(CC(=O)c4ccc(F)cc4)c(=O)n3c2c1 (stereo not drawn),0.375%,3.34%,6.08%,4.08%,5.39%
CC(C)c1cc(C(=O)N2C[C@@H](C)[C@](O)(C3CC3)C2)nc2ncnn12,-2.88%,4.71%,-1.4%,-0.506%,1%
COc1ccc(-c2cc3n(n2)CC(C)(C(=O)NCc2ccccc2OC)N(c2cc(C)cc(C)c2)C3=O)cc1 (stereo not drawn),5.35%,0.447%,-3.5%,2.72%,0.366%
CCCCC(=O)N1c2ccccc2NC2=C(C(=O)CCC2)C1c1ccccc1Cl (stereo not drawn),6.28%,-22.2%,-2.96%,-29.8%,6%
CCC(O)C(C)C1CCC(C(C)C(=O)O)O1 (stereo not drawn),-4.81%,-12.6%,-10.8%,-2.89%,4.33%
Cc1ccc(N2CCN(CCC3NC(=O)c4ccccc43)CC2)cc1C (stereo not drawn),-5.24%,-15.8%,-9.34%,0.251%,-0.376%
CC(=O)Nc1c2n(c3ccc(F)cc13)CC(C)(C(=O)NC1CCCC1)N(Cc1ccccc1C)C2=O (stereo not drawn),1.64%,-2.69%,-6.96%,-3.13%,-4.45%
COc1cccc(CN2C(=O)c3cc4sccc4n3CC2(C)C(=O)NC2CCCCC2C)c1 (stereo not drawn),0%,-8.98%,-1.03%,1.84%,6.57%
CC1CCN(S(=O)(=O)c2ccc3c(c2)oc(=O)n3CC(=O)N2CCN(c3ccccc3F)CC2)CC1,0.101%,-12.2%,-7.07%,-7.97%,-9.18%
O=S(=O)(Nc1ccccc1N1CCCCC1)c1ccc(Cl)s1,1.1%,-1.46%,-3.49%,-0.372%,2.2%
O=C(Nc1cc(C2CC2)nn1-c1ccccc1)c1ccc(C(F)(F)F)cc1,-7.75%,-10.6%,-4.9%,-7.7%,-3.14%
